Source: US9803019B2, “Carrier immunoglobulins and uses thereof” (Amgen Inc., priority 2010, dated 2017)

T1: IL-17R (Homo sapiens, UniProt Q96F46)
T1 construct: endogenous in cells; host or cells: human foreskin fibroblasts (HFF)
T1 sequence (Q96F46 33-866): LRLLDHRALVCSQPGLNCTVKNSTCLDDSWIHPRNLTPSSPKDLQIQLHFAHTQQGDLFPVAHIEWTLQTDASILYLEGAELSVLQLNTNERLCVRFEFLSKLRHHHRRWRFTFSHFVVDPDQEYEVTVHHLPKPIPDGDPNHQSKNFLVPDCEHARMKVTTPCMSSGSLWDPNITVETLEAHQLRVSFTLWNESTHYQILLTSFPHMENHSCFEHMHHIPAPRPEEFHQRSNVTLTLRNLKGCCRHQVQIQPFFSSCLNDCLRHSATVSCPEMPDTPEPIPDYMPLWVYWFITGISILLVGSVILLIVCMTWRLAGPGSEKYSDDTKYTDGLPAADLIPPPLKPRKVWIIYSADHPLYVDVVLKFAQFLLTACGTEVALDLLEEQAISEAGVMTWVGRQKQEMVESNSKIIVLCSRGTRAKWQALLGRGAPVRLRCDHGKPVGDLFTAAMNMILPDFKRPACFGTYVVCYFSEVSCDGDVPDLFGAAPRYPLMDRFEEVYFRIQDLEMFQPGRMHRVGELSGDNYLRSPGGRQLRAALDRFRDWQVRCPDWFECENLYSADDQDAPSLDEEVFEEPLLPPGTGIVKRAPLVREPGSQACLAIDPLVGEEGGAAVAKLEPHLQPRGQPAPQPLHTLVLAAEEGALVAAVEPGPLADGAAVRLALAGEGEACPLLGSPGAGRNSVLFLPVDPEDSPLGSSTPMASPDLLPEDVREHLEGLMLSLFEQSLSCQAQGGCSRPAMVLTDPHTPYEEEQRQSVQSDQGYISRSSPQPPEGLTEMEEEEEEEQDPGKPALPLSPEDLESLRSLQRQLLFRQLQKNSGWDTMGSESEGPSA


How the values were obtained:
[1] = Thermoresistance by DSC (MicroCal VP-DSC); type: physicochemical; details: 0.5 mg/ml in 10 mM sodium acetate, 9% sucrose, pH 5.0; 20° C. to 95° C. at 1° C. per minute
Protocol: The protein concentration was 0.5 mg/ml in 10 mM sodium acetate, 9% sucrose, pH 5.0.
Antibodies were also analyzed for thermoresistance by DSC using a MicroCal VP-DSC where the samples were heated from 20° C. to 95° C. at a rate of 1° C. per minute. DSC directly measures heat changes that occur in biomolecules during controlled increase or decrease in temperature, making it possible to study materials in their native state.
DSC measures the enthalpy (ΔH) of unfolding due to heat denaturation. A biomolecule in solution is in equilibrium between the native (folded) conformation and its denatured (unfolded) state. […] DSC is also used to determine the change in heat capacity (ΔCp) of denaturation (see, FIG. 11). The proteins were incubated at 0.5 mg/ml in 10 mM sodium acetate, 9% sucrose, pH 5.0 (FIG. 11).
The antibodies were analyzed for thermoresistance by DSC using a MicroCal VP-DSC where the samples were heated from 20° C. to 95° C. at a rate of 1° C. per minute. The proteins were at 0.5 mg/ml in 10 mM sodium acetate, 9% sucrose, pH 5.0 (FIG. 28).

[2] = Cynomolgus PK, single IV bolus (Example 4); type: in vivo, cynomolgus monkeys (Macaca fascicularis); details: single IV bolus 1 mg/kg or 10 mg/kg
Protocol: Serum samples were collected pre-dose and at 0.25, 0.5, 1, 4, 8, 12, 24, 48, 72, 96, 120, 144, 168, 192, 216, 240, 264, 288, 312, 360, 408, 456, 504, 552, 600, 648 and 672 hours after administration. Samples were assayed for 16435 antibody levels using an anti-IgG sandwich ELISA.
The pharmacokinetic profile of the 16435 antibody was determined in cynomolgus monkeys (Macaca fascicularis) to assess the in vivo parameters. Briefly, a single IV bolus dose of 16435, either 1 mg/kg or 10 mg/kg, was administered to mature male cynomolgus monkeys (n=2 per group). Serum samples were collected pre-dose and at timepoints 0.25, 0.5, 1, 4, 8, 12, 24, 48, 72, 96, 120, 144, 168, 192, 216, 240, 264, 288, 312, 360, 408, 456, 504, 552, 600, 648 and 672 hours after antibody administration. Samples were assayed for 16435 antibody levels by using an anti-IgG sandwich ELISA. Time concentration data were analyzed using non-compartmental methods with WinNonLin® (Enterprise version 5.1.1, 2006, Pharsight® Corp. Mountain View, Calif.).

IL-17R = biological target: T1, IL-17R; test: Cell based activity assay: IL-17-induced GRO-α release from human foreskin fibroblasts (sandwich ELISA); details: HFF, 5 ng/ml IL-17; 0.1, 1 and 10 μM antibody (FIG. 3)
Protocol: The conditioned cell medium was then assessed for GRO-α levels using a GRO-α sandwich ELISA.
Interaction of IL-17 with the IL-17R on cells induces the production of various factors, including growth-related oncogene alpha (GRO-α), from these cells. A cell-based characterization assay was developed to measure GRO-α released using sandwich ELISA. In this ELISA, a GRO-α capture antibody is utilized to bind GRO-α, and then a biotinylated GRO-α detection antibody is used to detect the captured protein. Streptavidin conjugated to horseradish peroxidise (HRP) is then added to detect the amount of biotinylated GRO-α detection antibody bound. The amount of HRP bound is measured by evaluation of absorbance at 450 nm. An increase in absorbance at 450 nm is indicative of an increase in the amount of GRO-α produced. In this assay, human foreskin fibroblasts (HFF) are incubated with 5 ng/ml IL-17 and 0.1 μM, 1 μM and 10 μM of antibody samples. The conditioned cell medium is then harvested and processed for assessment of GRO-α levels using a GRO-α sandwich ELISA.

| Molecule | DSC melting profile [1] | pharmacokinetic profile [2] | blocking activity on IL-17-induced GRO-α production (IL-17R) |
| --- | --- | --- | --- |
| 16435 (antibody, 16435 (LC: P66L, D90E)) heavy: MEWTWRVLFLVAAATGAHSQVQLVQSGAEVKKPGASVKVSCKASGYTFTRYGISWVRQAPGQGLEWMGWISTYSGNTNYAQKLQGRVTMTTDTSTSTAYMELRSLRSDDTAVYYCARAQLYFDYWGQGTLVTVSSASTKGPSVFPLAPCSRSTSESTAALGCLVKDYFPEPVTVSWNSGALTSGVHTFPAVLQSSGLYSLSSVVTVPSSNFGTQTYTCNVDHKPSNTKVDKTVERKCCVECPPCPAPPVAGPSVFLFPPKPKDTLMISRTPEVTCVVVDVSHEDPEVQFNWYVDGVEVHNAKTKPREEQFNSTFRVVSVLTVVHQDWLNGKEYKCKVSNKGLPAPIEKTISKTKGQPREPQVYTLPPSREEMTKNQVSLTCLVKGFYPSDIAVEWESNGQPENNYKTTPPMLDSDGSFFLYSKLTVDKSRWQQGNVFSCSVMHEALHNHYTQKSLSLSPGK light: EIVMTQSPATLSVSPGERATLSCRASQSVSSNLAWFQQKPGQAPRLLIYDASTRATGVPARFSGSGSGTEFTLTISSLQSEDFAVYYCQQYDNWPLTFGGGTKVEIKRTVAAPSVFIFPPSDEQLKSGTASVVCLLNNFYPREAKVQWKVDNALQSGNSQESVTEQDSKDSTYSLSSTLTLSKADYEKHKVYACEVTHQGLSSPVTKSFNRGEC | most desirable melting profile, with a higher temperature for the secondary transition | did not show any significant abnormalities | no significant blocking activity |
| 16444 (antibody, 16444 (LC: P66L, D90E, W114A)) heavy: MEWTWRVLFLVAAATGAHSQVQLVQSGAEVKKPGASVKVSCKASGYTFTRYGISWVRQAPGQGLEWMGWISTYSGNTNYAQKLQGRVTMTTDTSTSTAYMELRSLRSDDTAVYYCARAQQYFDYWGQGTLVTVSSASTKGPSVFPLAPCSRSTSESTAALGCLVKDYFPEPVTVSWNSGALTSGVHTFPAVLQSSGLYSLSSVVTVPSSNFGTQTYTCNVDHKPSNTKVDKTVERKCCVECPPCPAPPVAGPSVFLFPPKPKDTLMISRTPEVTCVVVDVSHEDPEVQFNWYVDGVEVHNAKTKPREEQFNSTFRVVSVLTVVHQDWLNGKEYKCKVSNKGLPAPIEKTISKTKGQPREPQVYTLPPSREEMTKNQVSLTCLVKGFYPSDIAVEWESNGQPENNYKTTPPMLDSDGSFFLYSKLTVDKSRWQQGNVFSCSVMHEALHNHYTQKSLSLSPGK light: EIVMTQSPATLSVSPGERATLSCRASQSVSSNLAWFQQKPGQAPRLLIYDASTRATGVPARFSGSGSGTEFTLTISSLQSEDFAVYYCQQYDNAPLTFGGGTKVEIKRTVAAPSVFIFPPSDEQLKSGTASVVCLLNNFYPREAKVQWKVDNALQSGNSQESVTEQDSKDSTYSLSSTLTLSKADYEKHKVYACEVTHQGLSSPVTKSFNRGEC |  |  | no significant blocking activity |
